The record followed here is paper PMC4336329 (PLoS ONE, 2015).

About 2,200 (0.71%) of roughly 310,000 compounds showed an effect of 50% or more. The effect is printed as a negative number. This is one part of the list.

For the assay, the target named is human ether-à-go-go-related gene (hERG) potassium channel (human, UniProt Q12809). The assay can be described thus: primary screen, population patch clamp on CHO cells stably expressing hERG.
Sequence of human ether-à-go-go-related gene (hERG) potassium channel (Q12809 whole entry, looked up): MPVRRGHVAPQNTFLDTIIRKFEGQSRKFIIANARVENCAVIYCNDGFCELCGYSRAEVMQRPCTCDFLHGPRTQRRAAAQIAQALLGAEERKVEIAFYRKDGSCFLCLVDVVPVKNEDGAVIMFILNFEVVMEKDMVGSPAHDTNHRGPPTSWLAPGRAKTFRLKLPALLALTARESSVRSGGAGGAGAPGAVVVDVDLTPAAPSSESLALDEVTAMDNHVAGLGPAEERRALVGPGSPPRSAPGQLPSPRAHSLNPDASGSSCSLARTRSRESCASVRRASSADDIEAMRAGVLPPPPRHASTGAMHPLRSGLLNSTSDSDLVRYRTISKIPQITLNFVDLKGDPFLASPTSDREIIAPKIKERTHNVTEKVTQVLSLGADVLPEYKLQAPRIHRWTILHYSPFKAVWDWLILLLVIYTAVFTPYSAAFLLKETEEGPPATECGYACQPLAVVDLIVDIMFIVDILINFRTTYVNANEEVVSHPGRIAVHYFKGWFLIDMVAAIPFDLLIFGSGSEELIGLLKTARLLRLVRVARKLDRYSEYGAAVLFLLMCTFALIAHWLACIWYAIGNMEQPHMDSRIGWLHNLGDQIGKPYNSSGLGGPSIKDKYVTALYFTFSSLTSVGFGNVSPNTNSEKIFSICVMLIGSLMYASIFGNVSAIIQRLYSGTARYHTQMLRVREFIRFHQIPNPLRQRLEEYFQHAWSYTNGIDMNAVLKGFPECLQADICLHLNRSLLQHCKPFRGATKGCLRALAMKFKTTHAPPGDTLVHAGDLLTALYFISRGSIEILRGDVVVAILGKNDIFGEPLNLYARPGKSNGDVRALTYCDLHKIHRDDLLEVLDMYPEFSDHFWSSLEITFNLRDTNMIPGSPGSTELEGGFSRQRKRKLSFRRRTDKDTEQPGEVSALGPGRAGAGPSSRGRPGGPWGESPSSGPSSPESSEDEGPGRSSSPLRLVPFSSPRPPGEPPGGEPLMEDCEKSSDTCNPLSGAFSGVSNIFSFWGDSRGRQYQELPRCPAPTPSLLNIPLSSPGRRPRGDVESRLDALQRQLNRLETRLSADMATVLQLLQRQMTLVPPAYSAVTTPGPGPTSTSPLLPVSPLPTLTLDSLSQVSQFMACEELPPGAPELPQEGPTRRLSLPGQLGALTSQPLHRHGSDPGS
On to `O=C1CCC(=O)N1OCCOc1ccc2c(c1)CCC2`, for which the “hERG current change (%, negative = inhibition) at 1uM” value is recorded as -6.51%. The figure for `CN(C)c1nc(Oc2ccc(=O)n(C)n2)nc(N2CCOCC2)n1` is 5.59%; for `CC12CCC(c3c(C(=O)O)nn(-c4ccc(F)cc4)c31)C2(C)C` (stereo not drawn) it is 6.67%. The figure for `O=C(Oc1ccc[nH]c1=O)c1cccc(Cl)c1` is 8.24%. For `O=C(NC(=S)Nn1cnnc1)c1cccc(Br)c1` the value was -1.47%; for `COC(=O)c1cc2ccsc2n1CC(=O)N1CCCc2ccccc21`, -4.72%. For the compound `COc1ccc(OC)c(C2=NOC(C(=O)Nc3ccc4c(c3)OCCO4)C2)c1` (stereo not drawn), the “hERG current change (%, negative = inhibition) at 1uM” value came out at 12.3%. For `CC(C)(C)n1cnc2cc(NCc3ccccc3O)ccc21` the value was 2.16%.

As to `CCN1C(=O)[C@H]2[C@@H](c3ccc(-c4ccc(C(C)=O)cc4)cc3)N[C@@](Cc3ccccc3)(C(=O)OC)[C@H]2C1=O.O=C(O)C(F)(F)F`, the “hERG current change (%, negative = inhibition) at 1uM” value is reported as 12.3%. For `O=C(N1CCOCC1)C1(S(=O)(=O)c2ccccc2)CC=CC1` the value was 11.9%. Take `Cc1nnc(NC(=O)c2ccc(S(=O)(=O)N3CC(C)OC(C)C3)cc2)o1` (stereo not drawn): the “hERG current change (%, negative = inhibition) at 1uM” value turned out to be 3.35%. The figure for `COc1cc(NC(=O)c2cc([N+](=O)[O-])ccc2NC(=O)CNC2CCCCC2)cc(OC)c1` is 15%; for `Cc1ccc(S(=O)(=O)N2CCC(C(=O)OCC(=O)N(CC(C)C)C3CCS(=O)(=O)C3)CC2)cc1C` (stereo not drawn) it is 10.8%; for `COc1ccccc1CC(=O)NCc1nn(-c2ccccc2)nc1C` it is 13.1%. The figure for `C=CCNC(=O)N1CCCC(N2CCN(c3ccccc3OC)CC2)C1` (stereo not drawn) is 9.02%; for `Cc1cc(C)c(Nc2cc(S(=O)(=O)[O-])c(N)c3c2C(=O)c2ccccc2C3=O)c(C)c1.[Na+]` it is 14.2%. For `Cc1ccc(S(=O)(=O)N2CCN(C(=O)Cn3nc(C)c([N+](=O)[O-])c3C)CC2)cc1` the value was -2.45%; for `CCOC(=O)c1cnc(-c2ccccc2)nc1Oc1ccccc1`, 7.52%. For the compound `CC(C)Cc1nnc(NC(=O)C2CC(=O)N(c3ccc4c(c3)OCCO4)C2)s1` (stereo not drawn), the “hERG current change (%, negative = inhibition) at 1uM” value was -3.53%. As for `O=C(NCc1cccs1)C1CCN(c2nccs2)CC1`, the “hERG current change (%, negative = inhibition) at 1uM” value was determined as 3.99%. Turning to `Cc1cc2ccccc2nc1Br`, the “hERG current change (%, negative = inhibition) at 1uM” value came out at 7.92%. The figure for `OCCC1CN(Cc2cccs2)CCN1Cc1ccccc1` (stereo not drawn) is 12.3%; for `CNS(=O)(=O)c1cccc(C(=O)OCC(=O)Nc2ccc(OC)cc2[N+](=O)[O-])c1` it is 13.9%. For `C/C(CC(=O)NC1CCCC1)=N\NC(=O)Cc1cccs1` the value was -8.68%.
